Test results as given in the supplement of paper PMC12217912.
This is one part of the list. Sequences were assembled here from the parent chain. Inactive controls read about 0.05.

B1: TEV protease; numbered along this chain (parent)
chain: MGESLFKGPRDYNPISSSICHLTNESDGHTTSLYGIGFGPFIITNKHLFRRNNGTLVVQSLHGVFKVKDTTTLQQHLVDGRDMIIIRMPKDFPPFPQKLKFREPQREERICLVTTNFQTKSMSSMVSDTSCTFPSGDGIFWKHWIQTKDGQCGSPLVSTRDGFIVGIHSASNFTNTNNYFTSVPKNFMELLTNQEAQQWVSGWRLNADSVLWGGHKVFMVKPEEPFQPVKEATQL

Variants of: B1
Test: raw area under fraction-flipped curve 0-4 h after induction (AUC4h, not background-subtracted), DNA-recorder readout of cleavage of the substrate (dimensionless); higher = more cleavage of the substrate by the protease variant
Conditions: temperature: 34 °C; time window: 0-4 h after rhamnose induction
Protocol: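 In vivo DNA recorder in E. coli TOP10(DE3) ΔrhaA at 34 °C. Each TEVp single-site mutant (parent TEVp 0) is paired with a single-site variant of the 7-mer TEVs (canonical ENLYFQ|S). The substrate sits between flexible linkers in a Bxb1-sfGFP-TEVs-SsrA fusion, so cleavage stabilises Bxb1 and speeds flipping of a recombination array, read by NGS. The value is the raw area under the fraction-flipped curve over 0-4 h after rhamnose induction (AUC4h), with ≥20 reads per time point. It is not background-subtracted; inactive controls average about 0.047.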
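Also: Bxb1 expression induced with 0.2% (w/v) L-rhamnose at OD600 near 0.5, cultures sampled hourly, flipped fraction per protease–substrate barcode pair counted by paired-end Illumina sequencing.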

Variant | area with substrate EALYFQS | area with substrate ECLYFQS | area with substrate EDLYFQS | area with substrate EFLYFQS | area with substrate EGLYFQS | area with substrate EHLYFQS | area with substrate EILYFQS | area with substrate EKLYFQS | area with substrate ELLYFQS | area with substrate EMLYFQS | area with substrate EPLYFQS | area with substrate EQLYFQS | area with substrate ERLYFQS | area with substrate ESLYFQS | area with substrate EVLYFQS | area with substrate EWLYFQS | area with substrate EYLYFQS | area with substrate EELYFQS | area with substrate ETLYFQS
F226W | 0.116 | 0.0987 | 0.113 | 0.117 | 0.0861 | 0.134 | 0.0957 | 0.0909 | 0.108 | 0.108 | 0.146 | 0.138 | 0.0759 | 0.105 | 0.0966 | 0.1 | 0.0916 | – | –
C20F | – | 0.0765 | 0.072 | – | 0.0625 | 0.0508 | 0.0677 | 0.0937 | – | 0.0602 | 0.0821 | 0.0688 | 0.0683 | 0.0611 | – | – | 0.066 | 0.0803 | –
T31P | – | 0.0724 | 0.0867 | – | 0.0588 | 0.0758 | 0.0558 | 0.0536 | 0.0824 | 0.055 | 0.062 | 0.069 | 0.0556 | 0.0701 | 0.0432 | 0.0735 | – | – | 0.0602
G28C | – | 0.0755 | 0.0663 | – | 0.0778 | 0.0985 | 0.0793 | 0.106 | 0.0715 | 0.0928 | – | 0.103 | – | 0.0844 | 0.081 | 0.0667 | 0.122 | 0.102 | –
K66P | – | 0.104 | – | – | – | – | 0.0968 | 0.0841 | 0.0923 | 0.0954 | 0.0963 | – | – | 0.0953 | 0.0832 | 0.0575 | – | – | 0.109
S18K | – | 0.0942 | – | – | 0.0799 | – | – | 0.0543 | – | 0.11 | – | 0.105 | – | 0.101 | 0.0847 | – | 0.114 | 0.0984 | 0.11
S32H | – | 0.111 | 0.128 | 0.105 | 0.0872 | 0.0948 | 0.0884 | 0.0938 | 0.0841 | – | – | 0.115 | 0.0873 | 0.109 | 0.0926 | 0.103 | 0.105 | 0.103 | –
L22V | – | 0.0949 | – | – | 0.0798 | – | 0.0808 | 0.0789 | 0.0888 | 0.113 | 0.0901 | 0.122 | 0.107 | 0.101 | 0.0907 | 0.0755 | 0.0992 | 0.108 | 0.115
D69W | – | 0.0686 | 0.0826 | – | 0.107 | 0.0897 | – | 0.0817 | 0.119 | 0.0825 | 0.0868 | – | – | 0.0772 | – | – | – | 0.103 | –
F41W | – | 0.0364 | 0.0965 | – | – | – | – | 0.0959 | 0.0642 | 0.0895 | 0.0953 | 0.0845 | 0.0833 | 0.0782 | 0.0725 | 0.0663 | – | 0.0951 | 0.0487
V220P | 0.121 | 0.0763 | 0.135 | – | 0.0731 | 0.0775 | 0.0704 | 0.0773 | 0.0634 | 0.0858 | 0.0959 | 0.0819 | 0.0709 | 0.0862 | 0.0753 | 0.0897 | – | 0.112 | 0.125
K68T | – | 0.113 | – | 0.0608 | 0.0962 | 0.116 | 0.117 | – | 0.112 | 0.113 | – | 0.141 | – | 0.0941 | – | 0.106 | 0.118 | – | –
P225F | 0.114 | – | 0.123 | – | – | – | 0.0979 | 0.0992 | 0.0987 | 0.0884 | – | 0.0803 | – | 0.0978 | 0.0932 | – | – | 0.104 | –
H47L | – | 0.0577 | 0.0566 | – | 0.0505 | 0.0519 | 0.0437 | 0.0575 | 0.0578 | – | 0.112 | 0.0622 | 0.0543 | 0.0586 | 0.0578 | 0.0514 | 0.0667 | 0.0543 | –
H47Y | – | 0.057 | – | 0.0565 | – | 0.0479 | 0.0619 | 0.0542 | 0.0287 | 0.0592 | 0.0529 | 0.0668 | 0.0255 | 0.0564 | 0.0502 | 0.0604 | 0.0727 | 0.0659 | –
H47N | – | 0.0535 | – | – | 0.0475 | 0.0616 | 0.0521 | – | 0.0628 | 0.0488 | 0.0606 | 0.0576 | 0.0446 | 0.0635 | 0.0506 | – | 0.0563 | 0.0441 | 0.0789
E25P | – | 0.0616 | 0.069 | 0.0666 | 0.0546 | – | 0.0721 | 0.0734 | 0.0739 | 0.0613 | – | 0.0781 | 0.0629 | 0.0629 | – | 0.055 | 0.0679 | – | 0.0502
N13G | – | 0.0908 | 0.105 | – | 0.0845 | 0.0931 | 0.0785 | 0.134 | 0.12 | 0.117 | 0.103 | 0.082 | – | 0.0957 | 0.0812 | 0.103 | 0.0883 | 0.0944 | –
S4N | – | 0.112 | 0.0637 | 0.148 | 0.108 | 0.138 | – | 0.113 | 0.147 | 0.149 | 0.125 | 0.141 | 0.157 | 0.128 | – | 0.0609 | 0.136 | 0.153 | 0.139
K230V | 0.108 | 0.0852 | 0.117 | 0.1 | – | – | 0.116 | 0.0863 | 0.0968 | – | – | 0.117 | 0.077 | 0.104 | 0.084 | 0.101 | – | – | 0.113
K230M | 0.111 | 0.0846 | – | 0.0988 | 0.07 | 0.0978 | 0.0826 | 0.134 | 0.0918 | 0.116 | 0.116 | 0.162 | 0.104 | 0.09 | 0.0656 | – | – | 0.115 | 0.11
F49P | – | 0.0248 | 0.0489 | 0.0623 | 0.0612 | 0.0613 | 0.0504 | – | 0.0619 | 0.0493 | 0.0607 | 0.0845 | 0.0646 | 0.0521 | 0.0565 | 0.0565 | 0.0448 | 0.0502 | 0.0571
S26F | – | 0.0811 | 0.1 | – | – | – | 0.0815 | 0.0789 | 0.088 | 0.0894 | – | 0.0844 | 0.0891 | 0.0685 | 0.0773 | – | 0.123 | 0.0977 | 0.0834
S26K | – | 0.0762 | 0.0634 | – | 0.0622 | – | 0.0601 | 0.0899 | 0.0712 | 0.0674 | 0.0629 | 0.0783 | 0.0758 | 0.0656 | 0.0612 | – | 0.0749 | 0.0603 | 0.0665
T55G | – | 0.104 | 0.102 | – | – | – | 0.0706 | 0.0784 | 0.106 | 0.112 | 0.102 | – | – | 0.0939 | 0.0783 | – | 0.0762 | 0.0708 | –
